PubChem BioAssay AID686978 (National Center for Advancing Translational Sciences (NCATS), 2013)
In all, about 420,000 compounds went through this assay and about 64,000 (15%) were called active. Inconclusive results, whose numbers are uncertain, are shown with a selection of clear calls. The call rests on the fitted dose curve; in most records, active means well fitted inhibition curve with a large enough effect; inconclusive means small, poorly fitted or top-dose-only effect; inactive means flat fitted curve, though single readings scatter. No potency is given beside an inconclusive call; the fits are too rough.

Test: qHTS for Inhibitors of human tyrosyl-DNA phosphodiesterase 1 (TDP1): qHTS in cells in absence of CPT; further: nearly all actives have a fitted effect of over 55% in size
Conditions: DT40 Tdp1-/- hTDP1 cells, no CPT, ATP luminescence, 48 h; activity change, negative = growth inhibition: at 46.2 µM (top of the series)
Method in brief: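 Seeded 400 DT40-hTDP1 cells/well (vehicle DMSO, no 20 nM CPT); pinned compounds; ≥48 hr at 37 °C; CellTiter-Glo luminescence as viability measure.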
On the % scale 0 is the no-effect control and ±100 the full control effect; potency means the concentration at half of the fitted maximal effect; tags describe the fitted curve by direction and shape.

Q: With `Cc1cc(Br)cn2cc(C(=O)O)nc12` as the compound, how does the “activity change, negative = growth inhibition” value read?
A: The value was inactive: 1.62%.

Q: For `CCCCNc1nc(N)nc(-c2cc(Cl)ccc2O)n1`, which Potency is on record?
A: Its Potency is active: 16.4 µM.

Q: Which Potency does the source give for `COc1cccc(NC(=O)CCCn2c(=O)c3cccn3c3cccnc32)c1` here?
A: The Potency was active: 20.6 µM.

Q: Which “activity change, negative = growth inhibition” value does the source give for `COC(=O)c1nn(-c2ccc(C)cc2)c2nnc(Cc3ccccc3)c(=O)n12` here?
A: Its value is inactive: 1.93%.

Q: With `CCOC(=O)c1cc(S(=O)(=O)N2CCN(C(=O)OCC)CC2)cn1C` as the compound, how does the Potency read?
A: The Potency was inconclusive [inhibitor, partial curve, poor fit].

Q: For `CC(C)(C)c1ccc(S(=O)(=O)N2CCNC(=O)C2)cc1`, which “activity change, negative = growth inhibition” value is on record?
A: The value was inactive: -2.59%.

Q: For `O=C(CCCC(=O)OCC(F)(F)C(F)F)Nc1ccc(NC(=O)CCCC(=O)OCC(F)(F)C(F)F)cc1`, which activity change, negative = growth inhibition is on record?
A: Its activity change, negative = growth inhibition is inconclusive: -24.9% [inhibitor].

Q: With `O=S(=O)(NCCN1CCOCC1)c1ccc2ccccc2c1` as the compound, how does the Potency read?
A: The Potency was inconclusive [inhibitor, partial curve].

Q: Which Potency does the source give for `CNC(=O)c1ccc(-c2cc3onc(-c4ccccc4)c3c(=O)n2C)cc1` here?
A: The Potency was active: 23.1 µM.

Q: With `CC(=O)Nc1ccc(S(=O)(=O)N2CCN(C(=O)N3CCCC3)CC2)cc1` as the compound, how does the “activity change, negative = growth inhibition” value read?
A: Its value is inactive: -17.8%.

Q: Which “activity change, negative = growth inhibition” value does the source give for `CCN(C(=O)COC(=O)c1cc2c(s1)CCCCC2)C1CCS(=O)(=O)C1` (stereo unspecified) here?
A: The value was inactive: -14.9%.

Q: With `COc1ccc(NS(=O)(=O)c2cccc(C(=O)NCC3(N(C)C)CCCCC3)c2)cc1` as the compound, how does the Potency read?
A: Its Potency is inconclusive [inhibitor, single point].

Q: With `Fc1ccc(-c2csc(=Nc3cccc(C(F)(F)F)c3)n2Cc2ccc3c(c2)OCO3)cc1` as the compound, how does the Potency read?
A: The Potency was active: 13 µM.

Q: With `C[C@@H]1CN([C@@H](C)CO)C(=O)CCCn2nncc2CO[C@@H]1CN(C)S(=O)(=O)c1ccc(-c2ccccc2)cc1` as the compound, how does the Potency read?
A: Its Potency is inconclusive [inhibitor, single point].

Q: With `Cc1cccc(/C=N\NC(=O)c2ccc(Cl)cc2)c1O` as the compound, how does the Potency read?
A: The Potency was inconclusive [inhibitor, single point].

Q: Which “activity change, negative = growth inhibition” value does the source give for `N#CC(=Nc1ccccc1)c1ccccc1` here?
A: The value was inactive: -11%.

Q: With `CCOC(=O)C1=C(C)NC2=C(C(=O)OC2)C1c1ccccc1` (stereo unspecified) as the compound, how does the Potency read?
A: Its Potency is inconclusive [inhibitor, single point].

Q: Which “activity change, negative = growth inhibition” value does the source give for `O=C1C(=O)N(C2CCNCC2)CCN1Cc1ccccc1` here?
A: The value was inactive: 13.4%.

Q: Which Potency does the source give for `CCOC(=O)C1=CCN(S(=O)(=O)c2ccc(F)cc2)C1c1cccc(C)c1` (stereo unspecified) here?
A: The Potency was inconclusive [inhibitor, single point].

Q: For `O=Cc1sc(Nc2ccccc2)nc1Cl`, which Potency is on record?
A: Its Potency is inconclusive [inhibitor, single point].

Q: Which “activity change, negative = growth inhibition” value does the source give for `O=C(NNC(=O)C1CCC1)c1ccccc1` here?
A: The value was inactive: 5.31%.

Q: With `O=C(c1cc([N+](=O)[O-])ccc1N1CCOCC1)N1CCCC1` as the compound, how does the “activity change, negative = growth inhibition” value read?
A: The value was inactive: 2.28%.

Q: With `Fc1cccc(NC(=S)NCCc2ccccc2)c1` as the compound, how does the Potency read?
A: The Potency was active: 20.6 µM.

Q: Which “activity change, negative = growth inhibition” value does the source give for `Fc1ccc(-c2cc(-c3ccccc3)c3c(n2)-c2ccccc2OC3)cc1` here?
A: Its value is inactive: -25.1%.

Q: Which “activity change, negative = growth inhibition” value does the source give for `N#Cc1c(-c2ccccc2)cc(-c2ccc3c(c2)OCO3)[nH]c1=O` here?
A: The value was inactive: -10.7%.

Q: For `O=C(Nc1ccc(-n2cnnn2)cc1)c1cn2ccccc2n1`, which activity change, negative = growth inhibition is on record?
A: Its activity change, negative = growth inhibition is inconclusive: -28% [inhibitor].

Q: Which “activity change, negative = growth inhibition” value does the source give for `Cc1cccnc1NC(=O)CCn1c(=O)oc2ccccc21` here?
A: Its value is inactive: 5.54%.

Q: Which Potency does the source give for `CC(=O)Nc1ccc(/C(C)=N/Nc2nc(Nc3cccc4ccccc34)nc(N3CCOCC3)n2)cc1` here?
A: Its Potency is active: 20.6 µM.

Q: For `CCOC(=O)c1cccc(NC(=O)c2cc(C)nc3c2c(C)nn3-c2ccc(C)cc2)c1`, which Potency is on record?
A: The Potency was active: 20.6 µM.

Q: Which Potency does the source give for `Cc1c(Cl)cccc1NC(=O)COC(=O)c1c2c(nc3ccccc13)CCN(Cc1ccccc1)C2` here?
A: Its Potency is active: 16.4 µM.

Q: With `CC(=O)Nc1ccc(C=C(C#N)c2ccc(C)cc2)cc1` as the compound, how does the Potency read?
A: Its Potency is inconclusive [inhibitor, single point].

Q: For `Oc1ccccc1-c1nc(NCC2CCCO2)c2ccccc2n1` (stereo unspecified), which Potency is on record?
A: Its Potency is inconclusive [inhibitor, single point].

Q: For `CCOC(=O)c1ccc(NC(=O)C2=C(C)C(=O)OC23CCN(C(C)=O)CC3)cc1`, which “activity change, negative = growth inhibition” value is on record?
A: The value was inactive: 1.89%.

Q: With `CN(C(=O)c1ccc(NC(=O)Cc2ccc(NC(=O)C3CCCN(C(=O)C4CCC4)C3)cc2)cc1)C1CC1` (stereo unspecified) as the compound, how does the “activity change, negative = growth inhibition” value read?
A: The value was inactive: -26.1%.

Q: Which Potency does the source give for `Cc1c([N+](=O)[O-])cnc(Sc2ccccc2)c1[N+](=O)[O-]` here?
A: Its Potency is active: 9.2 µM.

Q: With `O=C(/C(=C(\O)c1ccccc1)c1nc2ccccc2[nH]1)c1ccccc1` as the compound, how does the Potency read?
A: The Potency was inconclusive [inhibitor, partial curve].

Q: With `COc1ccc(S(=O)(=O)N2CCCCC2)cc1NC(=O)COC(=O)c1ccco1` as the compound, how does the “activity change, negative = growth inhibition” value read?
A: The value was inactive: -10.8%.

Q: For `O=C(N[C@@H](Cc1ccc(O)cc1)C(=O)O)c1ccc(C(F)(F)F)cc1`, which “activity change, negative = growth inhibition” value is on record?
A: Its value is inactive: 0.404%.

Q: Which Potency does the source give for `CCN1CCN(C(=O)c2nn(-c3ccc(OC)cc3)c(=O)c3c2c2ccccc2n3C)CC1` here?
A: The Potency was inconclusive [inhibitor, single point].

Q: For `CC(=O)c1sc2nc(-c3ccc(C)cc3)c3c(c2c1N)CCCC3`, which Potency is on record?
A: Its Potency is inconclusive [inhibitor, single point].

Q: Which Potency does the source give for `Cc1ccccc1Cn1ccc(NC(=O)c2cnn3cccnc23)n1` here?
A: Its Potency is inconclusive [inhibitor, partial curve, poor fit].

Q: Which Potency does the source give for `CCCCNC(=O)Nc1nc2ccc(CC)cc2s1` here?
A: Its Potency is inconclusive [inhibitor, single point].

Q: For `COc1cc(C(=O)NC2CC(C)CC(C)(C)C2)cc(OC)c1OC` (stereo unspecified), which Potency is on record?
A: Its Potency is inconclusive [inhibitor, single point].

Q: For `COc1ccccc1N1CCN(CC(=O)NC(=O)NCc2ccco2)CC1`, which “activity change, negative = growth inhibition” value is on record?
A: The value was inactive: -5.84%.

Q: For `CCCCCC(=O)N1CCN(CCN=CC2=C(O)CC(c3cccs3)CC2=O)CC1` (stereo unspecified), which Potency is on record?
A: Its Potency is “inactive”.

Q: For `CC(=O)Nc1ccc(C2NC(=O)CCC2[N+](=O)[O-])cc1` (stereo unspecified), which “activity change, negative = growth inhibition” value is on record?
A: The value was inactive: 4.13%.

Q: Which Potency does the source give for `CCN(CC)c1ccc(C(=C2C=CC(=[N+](CC)CC)C=C2)c2ccc(N(CC)CC)cc2)cc1` here?
A: The Potency was active: 0.731 µM.

Q: For `Cn1c(=O)c2[nH]c(CSCc3ccccc3)nc2n(C)c1=O`, which Potency is on record?
A: Its Potency is inconclusive [inhibitor, single point].

Q: With `CCc1cccc(C)c1NC(=O)CSc1n[nH]c(-c2ccccc2)n1` as the compound, how does the Potency read?
A: The Potency was inconclusive [inhibitor, single point].

Q: For `CC(C)CN1CCCC2(CCN(C(=O)c3cnccn3)CC2)C1`, which “activity change, negative = growth inhibition” value is on record?
A: The value was inactive: -0.0644%.

Q: For `O=C(CN1C(=O)C2CCCCN2C(=O)c2ccccc21)Nc1ccc(F)cc1` (stereo unspecified), which Potency is on record?
A: The Potency was inconclusive [inhibitor, partial curve].
